Out of some 46,000 compounds screened, about 60 (0.1%) were called active. Another 3% or so got no clear call; they are omitted. Calls follow the shape of the dose curve; as a rule, active = well fitted inhibition curve with a large enough effect; inconclusive = small, poorly fitted or top-dose-only effect; inactive = no such curve, though single readings can be large or run the other way. Some of the results follow.
assay: Primary qHTS assay for Inhibitors of ovarian cancer metastasis using an organotypic tumor microenvironment (TME) model.; also: nearly all actives have a fitted effect of over 65% in size;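 as to activity change, negative = inhibition: plate controls were DMSO wells for no effect and tomatine positive control wells for full effect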; conditions: SKOV3ip1-GFP adhesion/invasion on 3D omental model, fluorescence; series mostly up to 45.8 µM; activity change, negative = inhibition: at the top concentration
In short: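 Primary human omental fibroblast/mesothelial 3D culture pre-formed 48 h. SKOV3ip1-GFP cells added with compounds (0.36-46 umol/L), incubated 2 h RT/16 h 37 C, fixed; GFP cells quantified at 488/509 nm.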

Activity change, negative = inhibition, inactive:
O=c1c2oc3ccccc3c2n(Cc2ccc(Cl)cc2)c(=O)n1Cc1ccco1 -10.9%
Cc1ccccc1C(=O)Nc1ccc(OCc2cc(=O)n3cccc(C)c3n2)cc1 3.63%
COc1ccc(NC(=O)Nc2nnc(C)s2)cc1 -1.11%
CCc1ccccc1N(CC)C(=O)c1c(C)oc2ncnc(N3CCOCC3)c12 0.306%
CCOC(=O)C1CCN(c2nc3c(S(=O)(=O)c4ccccc4)nnn3c3ccsc23)CC1 12.6%
CC(Sc1nc(=O)cc(N)n1CCc1ccccc1)C(=O)Nc1ccc(Cl)cc1 (stereo not drawn) 13.1%
CCN(C(=O)C1CCC(CNS(=O)(=O)c2cccc3nsnc23)CC1)c1ccc(C)c(C)c1 (stereo not drawn) -0.179%
Cc1cccc(CN2CCC(CNC(=O)c3c(C)oc4ncnc(N5CCCCC5)c34)CC2)c1 8.28%
CCN(CC)CC#CCOC(=O)C(O)(c1ccccc1)C1CCCCC1 (stereo not drawn) -20.4%
O=C(CCc1cn(Cc2ccc(F)cc2)c2ccccc12)NCCc1ccc(Cl)cc1 -1.79%
CCN(CC)CCNC(=O)c1c(C)oc2ncn(C)c(=O)c12 2.56%
Cc1cccc(C(=O)Nc2sc3c(c2C(=O)N2CCCCC2)CCC(C)C3)c1 (stereo not drawn) -1.63%
CC(=O)N1CCOc2cc(S(=O)(=O)NC(C)c3ccccc3)c(Cl)cc21 (stereo not drawn) 14.1%
CCOC(=O)c1c(NC(=O)/C=C/c2ccc(C(C)C)cc2)sc2c1CCC2 -5.2%
Cc1ccc(NC(=O)Nc2nnc(N3CCCC3)s2)cc1 6.84%
Cc1ncc([N+](=O)[O-])n1CCO -1.1%
COc1cccc(NC(=O)CSc2nc3ccc(NC(=O)c4cccs4)cc3s2)c1 5.1%
Cc1ccc(C(=O)CC2(O)C(=O)N(Cc3ccccc3F)c3ccccc32)cc1 (stereo not drawn) -16.7%
CCN(c1ccccc1)c1nnc(NC(=O)Nc2ccc(Br)cc2)s1 -3.7%
COCc1nc2cccnc2n1C1CCN(S(=O)(=O)N(C)C)CC1 3.76%
CCOc1ccc(CCNc2ncnc3onc(-c4ccc(Cl)cc4)c23)cc1OCC -5.27%
CCc1ccc(OC(C)c2nc(-c3ccc(-n4cccc4)cc3)no2)cc1 (stereo not drawn) -14.8%
CCOC(=O)c1ccc(NC(=O)CCc2c(C)nc3c(c(C)nn3-c3ccccc3)c2C)cc1 -0.471%
COc1cccc(C2=C(C(C)=O)Sc3nncn3N2C(C)=O)c1 -17.7%
Cc1ccc(CN(Cc2ccco2)C(=O)COc2ccccc2C)cc1 6.56%
O=S(=O)(NCc1csc(-c2ccccc2)n1)c1cccc(F)c1 0.572%
COc1ccc(NC(=O)C(c2ccc(C)cc2)N(C)C(=O)/C=C\c2ccc3c(c2)OCO3)cc1 (stereo not drawn) -8.85%
OC(CCN1CCCCC1)(c1ccccc1)C1CC2C=CC1C2 (stereo not drawn) -2.98%
COc1ccccc1NC(c1ccc(Cl)cc1)c1nnc(-c2cccc(F)c2)o1 (stereo not drawn) 5.24%
CC(=O)c1ccc(NC(=O)CCc2c(C)nc3c(c(C)nn3-c3ccc(C)cc3)c2C)cc1 -2.52%
O=C(Cn1c(SCc2cccc(F)c2)nc2cccnc21)Nc1ccc(F)c(Cl)c1 -19.3%
CCOC(=O)c1ccccc1NC(=O)CSc1ncc(CO)n1Cc1ccc(C)cc1 -5.08%
Cc1nn2c(=O)cc(CN(C)c3ccccc3)nc2s1 -13.9%
O=C(CCS(=O)(=O)c1nc(-c2cccs2)cc(C(F)(F)F)n1)Nc1ccc(OC(F)(F)F)cc1 0.42%
COC(=O)c1ccccc1NC(=O)C1=CC(c2ccc(C)cc2)=NS(=O)(=O)N1C -14.9%
COc1ccc(C2c3c(oc4ccccc4c3=O)C(=O)N2Cc2ccc3c(c2)OCO3)cc1 (stereo not drawn) -7.26%
O=C(CN1CCN(Cc2ccc(F)cc2)C1=O)NCc1ccccc1Cl -20.2%
COc1cccc(-c2nn(C)c3sc(C(=O)NCc4cc(OC)ccc4OC)cc23)c1 3.06%
COc1ccc(OC)c(NC(=O)c2cc3c(n(-c4ccc(Cl)cc4)c2=O)CC(C)(C)CC3=O)c1 1.57%
O=C(Nc1ccc(F)c(Cl)c1)N1CCN(C(=O)c2nsc3ccccc23)CC1 -3.26%
CCN1c2ccccc2-n2cccc2C12CCN(C(=O)Nc1ccccc1C(F)(F)F)CC2 -0.391%
CCOc1ccc2nc(N3CCN(C(=O)CS(=O)(=O)c4ccc(F)cc4)CC3)sc2c1 -8.64%
CCn1c(C(=O)N2CCC(C(=O)N3CCN(c4cccc(C)c4C)CC3)CC2)cc2sccc21 12.5%
Cc1ccc(NC(=O)Cn2nnnc2-c2ccccc2N)cc1 -3.54%
Cn1nc(C(=O)N2CCN(c3ccc(Cl)cc3)CC2)c2c1-c1ccccc1SC2 -18.7%
O=c1c2cc3c(cc2nc2sc(Nc4ccc(F)cc4F)nn12)OCO3 4.7%
COc1ccc(Cl)cc1NC(=O)N1CCC(CN2CCc3ccccc3C2)CC1 -4.14%
c1ccc(CNc2nc3ccccc3c3nc(-c4ccccc4)nn23)cc1 0.842%
Cc1ccc2c(=O)cc(C(=O)Nc3sc4c(c3C(=O)NCc3ccco3)CCC4)oc2c1C -4.42%
CN(C)c1ccc(C(=O)NCCCCCCC(=O)NO)cc1 16.1%
O=C(Cn1cc(S(=O)(=O)Cc2ccc(F)cc2)c2ccccc21)NCCc1ccccc1 -0.728%
Cc1ccc(NC(=O)c2ccc(NC(=O)N3CCSc4ncccc43)cc2)cc1Cl 4.03%
CCc1ccc(-n2nc3cc(C)c(NC(=O)c4cc(Cl)ccc4OC)cc3n2)cc1 -9.16%
CCC(C)NC(=O)Cn1c(=O)n(Cc2ccc(C(=O)NCCCOC)cc2)c(=O)c2ccccc21 (stereo not drawn) 0.919%
Cc1ccc(NC(=O)c2c(N3CCCC3=O)c3cc(C)ccc3n2C)c(C)c1 -3.06%
COc1ccc(OCCn2c(C3CC(=O)N(c4ccc(F)cc4)C3)nc3ccccc32)cc1 (stereo not drawn) -5.33%
COc1ccc(Nc2cc(C(=O)NCCc3ccccc3)c3ccccc3n2)cc1OC 0.646%
CSc1ccc(CNCc2c(C(=O)O)c(C)n(Cc3ccc(F)cc3Cl)c2C)cc1 1.51%
Cc1ccc(Cl)c2sc(N3CCN(C(=O)C4CC4)CC3)nc12 3.68%
CC(C)c1ccc(NC(=O)CSc2ncc3c(n2)-c2ccccc2N(C)S3(=O)=O)cc1 -8.14%
COc1cccc(N2CCN(C(=O)C3CCCN(S(=O)(=O)c4ccc(Br)s4)C3)CC2)c1 (stereo not drawn) -1.44%
Cc1ccccc1Cn1cc(S(=O)(=O)c2ccc(Cl)cc2)c(=O)c2cc3c(cc21)OCO3 11.6%
Cc1ccccc1CNC(=O)c1c(C)oc2c1C1=NCCN1C=N2 -9.23%
Cc1ccc2oc(=O)c3cnn(CC(=O)NCc4ccccc4Cl)c3c2c1 10.8%
O=C(Cn1c(=O)n2nc(-c3ccccc3)nc2c2ccccc21)Nc1ccccc1C(F)(F)F -1.19%
Nc1ncc(S(=O)(=O)NCc2cccc(Cl)c2)cn1 -3.66%
O=C1[C@@H]2CSC(c3ccc(F)cc3)N2C(=O)N1c1ccc(Cl)cc1 (stereo partly drawn) -7.69%
COc1ccc(CNC(=O)c2cccc(N3CCCS3(=O)=O)c2)cc1 0.461%
COc1ccc(S(=O)(=O)N(Cc2nc(-c3ccc(C)cc3)no2)C2CCCCC2)cc1 -6.67%
Cc1ccc(-c2nc(CCNC(=O)C(=O)Nc3ccc(C)c(C)c3)cs2)cc1 -6.64%
Cc1ccc(-c2nc3scc(CCNC(=O)c4cccc(Br)c4)n3n2)cc1 -16.3%
CS(=O)(=O)c1ccc2nc(NC(=O)CS(=O)(=O)c3ccc(Cl)cc3)sc2c1 -3%
CCOC(=O)CNC(=O)Nc1cc(C(=O)NCc2cccc(F)c2)ccc1N1CCCC1 2.29%
CC(=O)c1cc(-c2ccc(F)cc2)n(CCC(=O)NCc2ccccc2C)c1C -6.43%
COc1ccc(NC(=O)c2ccc3nc(CCc4ccccc4)oc3c2)cc1 -8.6%

outcome, inactive:
Cc1oc2ccc(O)c(CN(C)Cc3ccccc3)c2c1C(=O)Nc1ccccc1
Cn1cnc(S(=O)(=O)N2CCC(C(=O)NCc3ccccc3Cl)CC2)c1
CNS(=O)(=O)c1cn(CC(=O)N2CCN(c3ccccc3F)CC2)cc1S(=O)(=O)NC
O=C(COc1ccccc1Cl)Nc1cc(-c2ccccc2F)nn1-c1ccccc1
Cc1cc(C)cc(NC(=O)CN(c2cc(C(F)(F)F)ccc2Cl)S(=O)(=O)c2ccccc2)c1
Cc1cc(C)cc(-n2c(SCC(=O)N3CCc4ccccc43)nc3c([nH]c4ccccc43)c2=O)c1
Cc1cccc(-c2nc(SCCCOc3ccccc3Cl)n3[nH]c(=O)cc3n2)c1
CCOc1ccc(OCC)c(NC(=O)C2CCCN(S(=O)(=O)c3ccc4c(c3)oc(=O)n4C)C2)c1 (stereo not drawn)
CCOc1ccc(CNC(=O)Cn2c(=O)c3cccn3c3ccc(F)cc32)cc1
Cc1ccc(C)c(N2CCN(c3ncnc4c3nc3n4CCCCC3)CC2)c1
O=C(C1CCCN(S(=O)(=O)c2cccs2)C1)N1CCN(c2cccc(Cl)c2)CC1 (stereo not drawn)
COc1cccc(CNC(=O)CSc2ccc(-c3sc(-c4ccccc4)nc3C)nn2)c1
CCOc1ccc(C(=O)NCC(c2ccco2)S(=O)(=O)c2ccc(C)cc2)cc1 (stereo not drawn)
NC(=O)CSc1nc2c(oc3ccccc32)c(=O)n1-c1ccccc1F
Cn1c(=O)c2nc(SCC(=O)Nc3cc(Cl)ccc3Cl)n(C)c2n(C)c1=O
COc1ccc(NS(=O)(=O)c2cc3[nH]c(=O)c(=O)[nH]c3cc2C)cc1OC
CCCN(C(=O)Cn1ncc2c(=O)oc3ccccc3c21)c1cccc(C)c1
CCCCOC(=O)c1ccc(NS(=O)(=O)c2c(C)nc3scc(C)n3c2=O)cc1
COc1ccccc1Nc1cc(C)nc2nc(-c3ccccc3)nn12
Cc1ccc(CNC(=O)Cn2ncc3c(C)n(Cc4ccc(Cl)cc4)c(C)c3c2=O)cc1
COC(=O)c1c(NC(=O)c2ccc(S(=O)(=O)N3CCCC(C)C3)cc2)sc2c1CCN(C(C)C)C2 (stereo not drawn)
Cc1c(NC(=O)c2nc3ccccc3n(C)c2=O)cccc1[N+](=O)[O-]
Cc1ccc(C)n1-c1nnc(N2CCC(C(=O)NCc3ccccc3Cl)CC2)s1

Reference: PubChem BioAssay AID1963576 (National Center for Advancing Translational Sciences (NCATS), 2024)
